Assay results: US20140011691A1 (ARIZONA BOARD OF REGENTS A BODY CORPORATE OF THE STATE OF …, published 2014)

Molecular target: a-syn (all forms) in human CSF (human, UniProt P37840)
Experiment: reactivity of CSF with nanobody; ND CSF

binding result: binds
B1: D10 nanobody (scFv)
scFv: MAEVQLVESGGGVVQPGRSLRLSCAASGFTFSSYGMHWVRQAPGKGLEWVAVISYDGSNKYYADSVKGRFTISRDNSKNTLYLQVNSLRAEDTAVYYCARINAKWGQGTLVTVSSGGGGSGGGGSGGSAL[in this place about 100 residues]TFGQGTKVEIKRAAAHHHHHHGAAEQKLISEEDLNGAA
notes: Immobilized on the biosensor through the DSP linker
